# Tested on: Pisum sativum var Early Onward
# Details: non-inoculated plants
smiles,measurement,value
"O=C(O)COc1ccc(Cl)cc1Cl [2,4-D, 2,4-dichlorophenoxyacetic acid]","accumulation of 2,4-D within the stem/leaf tissue, of the total 2,4-D applied",24-35%
